Laboratory results: publication PMC12040169 (PLOS Biology, 2025)
Some of the results follow.

Tested on: T1, C. trachomatis L2/434/Bu expressing GFP (CTL2-GFP)
T1 construct: L2/434/Bu GFP intracellular growth in HeLa cells
Parameters: species or system HeLa; C. trachomatis total inclusion area by high-content imaging, normalised to DMSO
Conditions: total inclusion area; 28.5 h, 10 µM; inhibitor
How it was run: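 High-content imaging followed the bulk GFP/resorufin measurement: fixed, Hoechst-stained cells were scored for GFP inclusions and host nuclei per well. Total inclusion area and count served as growth proxies, nuclei number as the viability proxy. MIC calculation matched the bulk assay.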

SMILES	% of control remaining
Oc1nnc(-c2ccc(Cl)c(Cl)c2)n1C1CCCCC1 [CBK074888]	93.1431
CN(C)CCCOC(=O)C(C)(c1ccccc1)c1ccccc1 [CBK265325C]	97.6059
CCN1CC(C(=O)N2CCCCC2CN(C)C)CC1=O (stereo not shown) [CBK282056]	78.8659
Cc1ccc(-n2c3nc(=O)n(C)c(=O)c-3cc3ccccc32)cc1 [CBK288007]	91.1342
CC1CCN(CN2C(=O)C(=O)c3ccccc32)CC1 [CBK261304]	99.8262
Cc1c(C)n2c(SCC(=O)N3CCCC3)nnc2[nH]c1=O [CBK287686]	90.0791
CCOc1ccsc1C(=O)Nc1cc(C)ccn1 [CBK004029]	18.8208
C[C@H]1[C@@H]2[C@@H](O)C([C@H](C)C(=O)NCc3ccccn3)CC[C@@]2(C)CC[C@@H]1NC(=O)C1CC1 (stereo partly shown) [CBK289445]	124.889
COCCNc1nc(-c2cccc(-c3ccccc3)c2)cnc1N [CBK063474]	146.749
COc1ccc(C)cc1S(=O)(=O)N(CC(=O)O)Cc1ccccc1 [CBK267847]	84.2687
COc1cccc(CC(=O)N2CCCC2c2cc(Nc3nc(C)cc(C)n3)cc(C)n2)c1 (stereo not shown) [CBK285999]	113.085
Clc1ccc(OCc2ccccc2)c(CNCCN2CCOCC2)c1 [CBK278162C]	78.3864
CC(C)c1nsc(NCCc2nnc3n2CCCC3)n1 [CBK306425]	89.8197
CCC(CC)C(=O)N(C)c1c(C)nc2ccc(C(=O)Nc3cccc(NS(C)(=O)=O)c3)cn12 [CBK146526]	106.741
O=C(NCCN1CCOCC1)C1(c2ccccc2)CCCC1 [CBK149538]	100.21
COC1C(O)C(CO)OC1n1cc(F)c(Oc2c(C)cc(C)cc2C)nc1=O (stereo not shown) [CBK201279]	94.4182
CC(=O)c1nnn(-c2ccc(Cl)cc2Cl)c1C [CBK085972]	59.4093
CCOC(=O)c1ccc(NC(=O)C2CC(=O)NC(Nc3nc4ccccc4s3)=N2)cc1 (stereo not shown) [CBK264396]	95.4334
CC(C)C[C@@H]1N[C@H](C(=O)N2CCN(c3ncccn3)CC2)Cc2cn(C)c3cccc1c23 [CBK289421]	98.6139
FC(F)(F)c1ccnc(OCCNc2ccccc2)n1 [CBK115839]	84.6574

SMILES	% of control remaining
CC(C)(N)C(=O)N1CC(C(=O)N2CC3(CCN(S(C)(=O)=O)CC3)c3ccccc32)C(c2cc3ccccc3o2)C1 (stereo not shown) [CBK136734T]	57.1928
CCC1c2ccc(C)n2CCN1Cc1cnc(C)n1C (stereo not shown) [CBK283038]	91.6721
CC(C)n1nccc1C(=O)NCC(c1ccc(F)cc1)N1CCCC1 (stereo not shown) [CBK283025]	98.6479
CC(=O)Nc1ccc(CNC(=O)c2cccnc2O)cc1 [CBK304559]	81.0332
O=C(c1ccccc1F)N1C[C@H](c2ccsc2)[C@H]2CN(Cc3ccccc3)CC[C@H]21 [CBK285655]	81.4815
NC(=O)c1cc(-c2ccccc2)sc1NC(=O)C(Cc1ccccc1)N1C(=O)c2ccccc2C1=O (stereo not shown) [CBK265843]	103.198
CN(C)CCCNC(=O)c1cc2c(n(-c3ccc(Cl)c(Cl)c3)c1=O)CC(C)(C)CC2=O [CBK293952]	103.584
CCc1ccc(C2=CC(c3cccc(C)c3)n3nnnc3N2)cc1 (stereo not shown) [CBK268095]	74.6686
Cc1ccc2c(c1)CCCN2C(=O)c1cccnc1NCc1ccc2c(c1)OCO2 [CBK160113]	81.8329
Cc1cccc(CN2CCC(NC(=O)c3cccc4nn[nH]c34)CC2)c1 [CBK305411]	104.384
Cc1cc(COC(=O)N2CCCC(C(F)(F)F)C2)cc(C)n1 (stereo not shown) [CBK200150]	39.7561
Cc1cc2nc(-c3ccccn3)[nH]c2cc1C [CBK000122]	16.707
COc1ccc(O)c(CN2CCC(N3CCCCC3)CC2)c1 [CBK261849]	98.3321
O=C1Nc2c(cnn2-c2ccccc2Cl)C2=NCCCN12 [CBK283331]	98.4057
Cc1noc(C)c1C(=O)N1CCN(c2ccccc2)CC1 [CBK200165]	95.8911
Cc1ccc(NC(=O)Cn2cnc3c(=O)n(C)c(=O)n(C)c32)c(O)c1 [CBK267002]	96.6042
CC(=O)NCCNC(=O)c1ccc(-c2ccccc2)nc1NCCc1ccccn1 [CBK076595]	103.699
CN(CC(=O)O)C(=O)c1ccc(Oc2cccc(Br)c2)nc1 [CBK306485]	49.7509
OC1(c2cccnc2)C2CCCC1CN(Cc1ccc(F)cc1)C2 (stereo not shown) [CBK285204]	85.2771
NC(=O)C1(Cc2cccc(-c3cccs3)c2)CCN(C(=O)Cc2ccccc2)CC1 [CBK286272]	65.8063
